Measurements reported in the supplement of paper PMC3334620.
The full ranking holds about 33,000 sequences; the median of “E-score (-0.5 to 0.5)” is about -0.016, and the highest 2% start at about 0.32. Some of the results follow.

What follows are sequences tested against T1, Stp1 (UniProt B3LFK1) (assay: PBM E-score (8-mer binding enrichment) (E-score (-0.5 to 0.5)); higher = stronger / more preferred TF binding; most listed sequences are background and not binding sites). Conditions: protein concentration: 200 nM; construct: GST-full length.
T1 sequence: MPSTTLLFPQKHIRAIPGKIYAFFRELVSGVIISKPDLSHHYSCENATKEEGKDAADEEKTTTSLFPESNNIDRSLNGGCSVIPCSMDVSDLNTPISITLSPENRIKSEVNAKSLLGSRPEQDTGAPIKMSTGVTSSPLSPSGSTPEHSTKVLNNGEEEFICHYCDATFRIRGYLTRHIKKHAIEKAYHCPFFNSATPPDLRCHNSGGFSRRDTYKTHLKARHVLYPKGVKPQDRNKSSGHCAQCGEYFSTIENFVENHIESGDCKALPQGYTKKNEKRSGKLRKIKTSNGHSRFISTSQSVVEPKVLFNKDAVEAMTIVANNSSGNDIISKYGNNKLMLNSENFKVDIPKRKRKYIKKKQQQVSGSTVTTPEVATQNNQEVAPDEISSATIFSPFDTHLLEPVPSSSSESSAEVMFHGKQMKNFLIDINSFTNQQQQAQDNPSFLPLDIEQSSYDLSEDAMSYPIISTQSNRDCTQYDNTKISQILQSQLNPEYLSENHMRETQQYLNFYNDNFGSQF
Procedure, shortened: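 The E-score, a modified Wilcoxon-Mann-Whitney statistic, was computed by the Universal PBM Analysis Suite for every ungapped eight-base word pooled with its reverse complement. Scans behind it were normalised with masliner after bound GST-tagged yeast transcription factors were detected with fluorescent anti-GST. The proteins, at about 100-200 nM, had been applied to universal all-10-mer Agilent arrays made double-stranded by primer extension.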

Sequence	PBM E-score
AGAGAAAC	-0.00716
CCAATGCA	-0.144
GAAAGATC	0.0377
GGGGGGAA	-0.343
CTGTATGC	-0.0205
CAATAGGC	0.218
CAATGAGG	-0.0804
AGTGCTAT	-0.287
GAGTAACC	-0.00115
GGAAGGTA	-0.0503
GAGGGGCA	-0.00367
CACGTCTC	0.0792
ATAAACCG	0.0403
CTAATGCA	0.195
CGTCGGAG	-0.179
GGGCGCCC	0.255
GACGCTCC	-0.189
CATGCTAA	-0.112
GAACGTGA	-0.101
GCCTCGTA	0.346
ACCCTTTC	-0.15
ACAGACGC	-0.0122
CACCTGCA	-0.138
GTAGCCGA	-0.238
CAACGCAG	-0.23

Sequence	PBM E-score
ATGCTGAG	-0.302
GAATAACC	-0.0652
AACCGACC	-0.117
ACACACGG	0.356
GCGCACCC	-0.0647
GCCTGAAA	0.159
TAAGACGA	-0.0174
ATGAGAAA	0.134
AGCGATGA	0.0954
CAGGTTTA	-0.0589
ATGAGCAT	0.0935
CCGCCTGA	0.114
AATAAGCC	0.0484
CGCAGTTA	0.0737
ACTGGTCT	-0.231
CGGGACCG	-0.0461
GTATCGCA	-0.0303
GAATCACC	-0.0222
CCGCTGAC	-0.0983
AGTGAAAA	0.124
ACCTAGGT	-0.275
CCCGCACG	0.222
ACTAGACT	-0.393
AGTGTCAA	0.0189
ACGGTGCC	0.396

Sequence	PBM E-score
ACAAAGTC	0.00883
CAGATATC	-0.089
ACGTAGTG	-0.155
AGACGCCT	0.191
GATTACCA	-0.0233
AAAGTAGT	0.0721
CATTAGGG	-0.0698
CAGAGTGG	0.0287
AGAAACAG	0.0862
ATCCCAAA	0.0422
TCAATCGA	0.106
CCTACTAC	0.036
CCAGGCCC	-0.286
ATTGCCCC	0.00493
GCCGATTA	0.13
GCGTCAGA	-0.0729
AACTACTA	0.177
ACATCACA	0.0308
GGAACCCC	-0.312
CTGACAAG	-0.0431
GCTTTACC	0.0342
CCTCAAAA	-0.115
CTGTCAAG	0.154
CCTCGTAC	0.0933
AACTTTTA	0.268

Sequence	PBM E-score
CCTAGGTC	-0.211
ATGAGTAC	0.0493
GGCCTACC	-0.185
GCCGTGCA	0.478
TAACTGGA	-0.038
ATCAAAAG	0.173
AGGCCAGG	-0.194
AAGACGCC	0.321
CTAATATA	0.174
CCCAAAGG	-0.0153
CTCACATC	0.00305
CGTAAGTA	-0.0266
AGATAAGC	-0.029
AGTAAGCC	-0.163
CCAATTCG	0.142
ATTTCGCA	0.111
AAGGTCTG	-0.133
CCTCTTAA	0.148
CATTGCTA	0.111
CCACTACA	-0.106
AACTCTAC	-0.212
ACAAGTAG	-0.337
AGGGAGAA	-0.178
CAACCAAA	0.113
ACTCACGC	0.205

Sequence	PBM E-score
GGTCATCA	-0.0874
CATCGTAA	0.171
ACTCTATA	0.0603
AAGAAAGT	0.0242
AGGTGTCC	-0.0375
GATAATGA	0.0865
GACCCATA	-0.215
AACCGTTA	-0.199
GTGCAATA	-0.0679
AAATGCGC	0.148
AGACAATG	-0.0306
AACCGCCG	0.324
AACAGGAC	-0.103
TCCTTTCA	0.132
AGTAAAGC	0.21
CATATATA	0.256
GAGCTACA	-0.237
AGGGACCC	-0.293
CGCCGTTC	0.464
CCTGAGAC	-0.248
ACGATCGG	-0.106
AGACCAGC	-0.25
ACTCCGTA	0.15
CGGACGAC	-0.0612
CAAGATAA	0.195

Sequence	PBM E-score
ATAATGGG	-0.029
ATATGTAA	0.12
TATCAGCA	-0.0134
ACCCAAGG	0.0251
TAACGGGA	-0.127
CAAGATGA	-0.0617
ATCGACTA	-0.126
CAAGTTCG	-0.119
ACGGAACT	0.131
ATCGAAAT	0.0933
AGAGATCA	-0.173
CTGTAATC	-0.169
CCAAACCG	0.014
GTCAAGAC	-0.195
ACCTAAAG	0.0737
AGACGTTC	-0.0284
ATGCGCCA	0.0976
ATTCTGCA	0.133
ATCTGGGC	-0.00136
GCTCCGAC	-0.314
AGCGCGAT	0.195
GCAGTCCA	0.121
ATTGTGGG	-0.231
ACGGTTCC	0.0184
CTTATCGC	0.0251

Sequence	PBM E-score
TGGCACCA	0.176
GACCGCAC	-0.177
GAAATATA	0.241
CAAGAGAG	-0.0299
CGCCTGTC	-0.0688
CAGTCAGG	-0.188
CTACTGCA	-0.146
ATCACTGA	-0.0416
ATCGTCAG	-0.191
ACGAAATA	0.181
GCCGTACC	0.46
CAGGCCGG	-0.233
AACCACAG	-0.23
ACCATGCC	0.199
GTCGAGGA	-0.285
AAGGCGTC	0.296
TAGATACA	0.0954
CCCTCATC	-0.344
CATGCGAA	0.111
CTGTAAAG	0.0921
CCGTGGAG	0.205
CCTGCCCA	-0.259
